Out of some 45,000 compounds screened, about 200 (0.44%) were called active. Inconclusive results (about 7%) are left out. Calls come from the whole dose curve; as a rule, active = well fitted activation curve with a large enough effect; inconclusive = small, poorly fitted or top-dose-only effect; inactive = no such curve, though single readings can be large or run the other way. This is one part of the list.
Experiment: qHTS of TDP-43 Inhibitors: NCGC Sytravon Library Screen; note: 0% is about no effect; nearly all actives have a fitted effect of over 55% in size
Details: yeast TDP-43 toxicity rescue, BacTiter-Glo growth, 24 h; series mostly up to 46.1 µM; growth rescue (activation): at the top concentration
How it was run: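 TDP-43-expressing yeast, pregrown in raffinose, seeded at OD600 0.02 in galactose medium with compound for 24 hr at 30 deg C. Growth read by BacTiter-Glo luminescence, so rescue of toxicity appears as activation.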

| Compound | growth rescue (activation) |
| --- | --- |
| COC(=O)c1nn(-c2ccccc2)c(Sc2ccccc2)c1/C=N/O | inactive: -19.2% |
| Cc1cc(C)cc(Nc2c(F)c(F)c(F)c(F)c2C(=O)O)c1 | inactive: 4.53% |
| O=C1CC(c2ccccc2)CC2=C1C=Nc1ccccc1N2 (stereo not given) | inactive: 20.4% |
| CN1C/C(=C/c2cccs2)C(=O)/C(=C\c2cccs2)C1 | inactive: 4.26% |
| O=C(c1ccccc1)c1cccs1 | inactive: -4.02% |
| CCn1ccnc1CN(C)Cc1nc(-c2ccccc2)no1 | inactive: 14% |
| COc1ccc(NS(=O)(=O)c2cccc(NC(=O)CNC(C)=O)c2)cc1 | inactive: 10.6% |
| CCOC(=O)c1ccc(NC(=O)NCc2ccccc2)cc1 | inactive: 14.8% |
| O=C(NCc1ccccn1)c1cc(Br)ccc1Cl | inactive: 3.37% |
| O=C(CCN1CCN(Cc2ccccc2)CC1)Nc1ccccc1Cl | inactive: 20.5% |
| O=C(O)CC1Sc2nc3ccccc3n2C1=O (stereo not given) | inactive: 17% |
| Cn1c(SCC(=O)NNC(=O)Cc2ccccc2)nnc1-c1ccccc1 | inactive: 2.16% |
| COC(=O)C1=CN(C)C=C(C(=O)OC)C1c1ccsc1 | inactive: 11.1% |
| O=C(CNC(=O)C(c1ccccc1)c1ccccc1)N/N=C\c1ccc2c(c1)OCO2 | inactive: -2.98% |
| Cc1cc(C)cc(N(C(=O)c2ccccn2)C(C(=O)NC2CCCCC2)c2ccncc2)c1 (stereo not given) | inactive: -10.4% |
| Cc1ccc(NC(=O)Nc2c(C)[nH]c(=O)[nH]c2=O)cc1Cl | inactive: -13.5% |
| CCC(=O)OCc1cc(=O)oc2ccc3ccccc3c12 | inactive: -16.8% |
| CC(=O)N(Cc1cc(=O)[nH]c2ccccc12)c1ccc(C)cc1 | inactive: 5.82% |
| Cc1ccc(NC(=O)c2sc(C)nc2C)c(C)c1 | inactive: 13% |
| CC(=O)C1=C(C)NC2=C(C(=O)CC(C)(C)C2)C1C (stereo not given) | inactive: 7.05% |
| COCCSc1ccccc1C(=O)Nc1ccc(Cl)cn1 | inactive: 10% |
| O=C(NCCc1ccccc1)c1c(F)cccc1F | inactive: 20.1% |
| COc1ccc(NC2CCCN(C(=O)c3oc(C)cc3C)C2)cc1OC (stereo not given) | inactive: -3.19% |
| Cc1ccc(S(=O)(=O)N2CCN(C(=O)CCn3nc(C)c(C)c3C)CC2)cc1C | inactive: 5.79% |
| Cc1ccc(NS(=O)(=O)c2cccc(C(=O)N/N=C/c3ccc4c(c3)OCCO4)c2)c(C)c1 | inactive: 16.9% |
| CCCCn1cnc2cc(C)c(C)cc21 | inactive: 8.34% |
| COc1ccc(OCCC(=O)Nc2nccs2)cc1 | inactive: 18.8% |
| O=C(CCCC(=O)N/N=C\c1ccccn1)N/N=C\c1ccccn1 | inactive: 4.22% |

| Compound | growth rescue (activation) |
| --- | --- |
| O=C(c1cccc([N+](=O)[O-])c1)N1CCN(c2ccccn2)CC1 | inactive: 6.72% |
| COc1ccc(C(=O)Nc2ccc(NC(=O)CSc3nnc(-c4ccncc4)n3C)cc2)cc1 | inactive: 3.13% |
| CNc1ncnc2c1ncn2[C@H]1CN(Cc2ccc(-c3ccccc3)cc2)C[C@@H](CO)O1 | inactive: 7.02% |
| O=C(Nc1ccc(Cl)cc1F)c1ccccc1Br | inactive: 31% |
| O=C(/C=C/c1cn(-c2ccccc2)nc1-c1ccc2c(c1)OCCO2)NCCCN1CCOCC1 | inactive: 11.3% |
| CCCNC(=O)COC(=O)c1cc(C)nc2ccccc12 | inactive: 0.142% |
| COC(=O)c1cc2oc3ccccc3c2n1Cc1c(C)cc(C)cc1C | inactive: -6.68% |
| Cc1ccc(NC(=O)c2ccc3snnc3c2)cc1 | inactive: -3.06% |
| CCCOC(=O)CSc1nnc(-c2ccccc2Cl)o1 | inactive: 0.483% |
| CCCCN(C(=O)c1cnccn1)c1c(N)n(CCC)c(=O)[nH]c1=O | inactive: 8.37% |
| CCOC(=O)/C(C#N)=C/Nc1cc(OC)ccc1OC | inactive: 27.8% |
| COc1ccc(CNCc2ccncc2)c(OC)c1 | inactive: 12.8% |
| CC(O/N=C/c1ccc(OC(F)F)cc1)C(=O)Nc1cccc(S(=O)(=O)N2CCOCC2)c1 (stereo not given) | inactive: 16.6% |
| NC(=O)c1ccc(NC(=O)COC(=O)CCSc2ccccc2)cc1 | inactive: 7.66% |
| CC(C)CNC(=O)C1(C)CCCCCN1C(=O)c1cc(C#N)cs1 (stereo not given) | inactive: 11.3% |
| CC1(C)CC(=O)C(C=Nc2ccc(C(=O)c3ccccc3)cc2N=CC2=C(O)CC(C)(C)CC2=O)=C(O)C1 | inactive: -8.27% |
| C=CCNC(=O)c1ccc2c(c1)N(CC)C(=O)c1ccccc1S2 | inactive: 3.03% |
| O=C(Nc1cc(Cl)ccc1O)c1cc(-c2ccco2)on1 | inactive: 26.6% |
| COc1ccc(CCN(C)C(=O)c2cnc(C)cn2)cc1OC | inactive: 11.6% |
| COc1cc(NC(=O)NCCN2CCN(c3ccccc3)CC2)cc(OC)c1OC | inactive: 13.7% |
| CCOc1ccc(Br)cc1S(=O)(=O)Nc1ccc(S(=O)(=O)Nc2cc(C)on2)cc1 | inactive: 6.7% |
| Cc1ccc(S(=O)(=O)N2CCN(CCNC(=O)C(=O)NCc3ccccc3)CC2)cc1 | inactive: -13.6% |
| O=C(NC(=S)N1CCN(Cc2ccccc2)CC1)c1ccco1 | inactive: 11.6% |
| Cc1nsc(Nc2ccccc2)c1C#N | inactive: 11.5% |
| Cc1cc(=O)[nH]c(N/N=C/C=C/c2ccccc2)n1 | inactive: 12.1% |
| O=C(O)CCn1cc(/C=C2\NC(=S)N(c3ccccc3)C2=O)c(-c2ccc(Br)cc2)n1 | inactive: 14.5% |
| Cc1cc(=O)oc2cc(OCCC[n+]3ccccc3)ccc12 | inactive: 0.602% |

Reference: PubChem BioAssay AID1347073 (National Center for Advancing Translational Sciences (NCATS), 2019)
